Source: the supplement of paper PMC3334620
In all, about 33,000 sequences were measured (“E-score (-0.5 to 0.5)”: median about -0.017, highest 2% from about 0.3 on). Some of the results follow.

target: T1, Sut1 (UniProt P53032); assay: PBM E-score (8-mer binding enrichment) (E-score (-0.5 to 0.5)); higher = stronger / more preferred TF binding; most listed sequences are background and not binding sites; details: protein concentration: 200 nM; construct: GST-full length
T1 sequence: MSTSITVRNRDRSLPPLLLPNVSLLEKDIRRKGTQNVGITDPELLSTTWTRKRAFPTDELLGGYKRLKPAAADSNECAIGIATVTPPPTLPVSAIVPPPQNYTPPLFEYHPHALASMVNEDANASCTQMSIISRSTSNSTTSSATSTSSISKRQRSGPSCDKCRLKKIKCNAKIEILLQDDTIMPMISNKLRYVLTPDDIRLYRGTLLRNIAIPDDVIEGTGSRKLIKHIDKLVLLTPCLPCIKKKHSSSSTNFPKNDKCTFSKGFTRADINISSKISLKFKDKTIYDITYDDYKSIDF
Summary of the method: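 Full-length yeast transcription factors or their DNA-binding domains, GST-tagged and expressed with PURExpress, were applied at about 100-200 nM to universal all-10-mer Agilent arrays. These arrays had been made double-stranded by primer extension on fresh or once-stripped slides. Detection used fluorescent anti-GST, normalisation used masliner, and E-scores for ungapped eight-base words pooled with reverse complements came from the Universal PBM Analysis Suite.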

Row | Sequence | PBM E-score
1 | CTGCTATC | 0.134
2 | GGTCTTGA | -0.0986
3 | CTGAGGAA | -0.147
4 | CTTTCGGA | 0.395
5 | GAGCATTA | 0.00341
6 | AGGAACGC | -0.23
7 | ACTACGGG | -0.0434
8 | GCCTGAGC | -0.353
9 | ACGTGCAC | -0.14
10 | ATGGGGGG | -0.324
11 | GTGGCAAA | -0.17
12 | CTGAGCCC | -0.252
13 | ATCTCCTA | -0.0274
14 | CTCTCTAA | -0.108
15 | CAATAGAA | 0.0731
16 | AGGTCTCC | -0.115
17 | ACTACACC | 0.0323
18 | ACCCGATC | -0.179
19 | CACCTAGG | -0.145
20 | AAGTGCAG | -0.298
21 | ACAACTGT | -0.138
22 | CTAGCATC | -0.0352
23 | AAGAGCTC | -0.108
24 | CGGGACGC | -0.229
25 | AGTCAATC | 0.0394

Row | Sequence | PBM E-score
26 | AAGAGGGT | -0.161
27 | AATTTGGG | -0.0119
28 | ACTGCGAG | -0.185
29 | AGTGCCTA | -0.191
30 | AACTCGAC | -0.0444
31 | AGAGCGCA | -0.306
32 | ATCCCAAT | 0.0805
33 | ATGTATAG | 0.0664
34 | CGCGTCCC | -0.0434
35 | ATTGCCTA | -0.25
36 | AGTTCGTC | -0.00915
37 | CTGCGTCA | -0.0676
38 | CACCGGCA | 0.00573
39 | GTTAAGGA | 0.0323
40 | AGTAATTG | 0.0745
41 | ACTGGGCT | -0.0255
42 | CTTGCCTA | -0.0357
43 | AGACTGAC | 0.0324
44 | ACGAGATC | 0.0427
45 | GCACGCGC | -0.057
46 | AGGCTTCG | -0.0165
47 | GATCTTAA | 0.149
48 | ACGCTCCG | 0.0842
49 | GACACGTC | -0.169
50 | CTTCAAGA | 0.042

Row | Sequence | PBM E-score
51 | GATCTTAC | -0.106
52 | AGCGAGCG | -0.031
53 | GATATTAA | 0.285
54 | GCTGAAGC | -0.0969
55 | AAGCTCAA | -0.0002
56 | CTCTCTTC | -0.0837
57 | AACTTTAG | 0.189
58 | CGACATGC | -0.0641
59 | AGTTACGA | 0.165
60 | AGGCGGAC | 0.142
61 | AATACACG | 0.0728
62 | CGAGGCGA | -0.082
63 | AGCCCTCC | -0.265
64 | GCACACTA | -0.201
65 | TGCTAGCA | 0.0232
66 | CGCTTCTA | 0.181
67 | CCCGAAGG | -0.0908
68 | CCGCCTTC | -0.0906
69 | GCGTTTAA | 0.034
70 | AAGTGCGA | 0.00733
71 | CCACTGTC | -0.241
72 | AGTTAAAG | 0.0654
73 | ACCATCTG | -0.215
74 | CCTTCCTA | -0.218
75 | CGCGCGAA | -0.0343

Row | Sequence | PBM E-score
76 | CCAGGAAA | 0.0848
77 | AGAACGCG | -0.0274
78 | AAGCGAAA | 0.137
79 | ACATTCCG | 0.203
80 | GACGGCGA | -0.211
81 | AACGAAGT | 0.00656
82 | CAGGGCTA | -0.281
83 | CTCAGCAA | -0.0278
84 | AACACATG | -0.0982
85 | AATTAAAG | 0.198
86 | AGTCTATA | -0.057
87 | ACCGTGGC | -0.294
88 | AATCAAAG | 0.0752
89 | ATGATGAC | -0.00406
90 | TCATTACA | 0.194
91 | CTAAACTC | 0.225
92 | AGATTACT | 0.17
93 | ATTACATA | 0.154
94 | GAACAACA | 0.0257
95 | AGAAGACG | 0.165
96 | CGGGCAGA | -0.0138
97 | CACTCAAA | 0.0583
98 | CTTTCTAC | 0.0717
99 | CAGTGCGG | -0.0241
100 | TGAATGAA | 0.22

Row | Sequence | PBM E-score
101 | CGACTTTA | 0.166
102 | ATATCAGC | -0.0972
103 | GGGCAATA | -0.115
104 | AACGTGTA | -0.0189
105 | AAAGACGG | 0.156
106 | GCGGTGTA | -0.0318
107 | CTAGAAAG | 0.113
108 | AGATACCT | -0.131
109 | CAGGTTCC | -0.197
110 | AGCTCAGA | -0.183
111 | ACTTGGCC | -0.0598
112 | GGTCTTAC | -0.0805
113 | ACGCACCT | -0.126
114 | CACCCCGC | 0.114
115 | ATACAGCC | -0.131
116 | AATATGGA | 0.0994
117 | ATTGAGGC | -0.013
118 | CATGGTTC | 0.0395
119 | ATGGACCG | -0.0839
120 | CCATACCA | -0.0352
121 | CTTGTGAC | -0.172
122 | CATCAATC | 0.154
123 | AGTGTGTG | 0.0153
124 | GAGGAACC | -0.152
125 | AACTGGAA | 0.00516

Row | Sequence | PBM E-score
126 | CGCCTTCA | -0.0861
127 | CCGCTTGC | 0.0599
128 | GGAAGGTA | 0.0137
129 | GAGTAACC | 0.224
130 | GAGGGGCA | -0.423
131 | CTGTATGC | 0.127
132 | GGGGGGAA | -0.318
133 | GAAAGATC | -0.057
134 | CAATGAGG | -0.175
135 | AGTGCTAT | -0.0139
136 | CAATAGGC | 0.13
137 | AAGGCGCA | -0.0425
138 | CCAATGCA | -0.0621
139 | AGAGAAAC | 0.0576
140 | AGAACCCC | 0.0064
141 | CTGGGGCA | -0.334
142 | TAACGTCA | 0.0274
143 | GCGAGAAA | 0.0168
144 | AACCGGCC | -0.0986
145 | GTGACTGA | -0.0404
146 | GTAAACGA | -0.0179
147 | CCTGTTCG | -0.0708
148 | AACTTCAT | 0.0505
149 | GGGATTCA | -0.105
150 | TGTATGAA | 0.193

Row | Sequence | PBM E-score
151 | CTCGTATA | -0.0483
152 | AAAAGTAA | 0.286
153 | ACTGCCTA | -0.16
154 | CCACCTCG | -0.208
155 | ACATCCAG | -0.151
156 | AGGTGAAT | -0.0631
157 | CGATAGCC | 0.132
158 | CCGAAAGG | 0.225
159 | CACGACGG | 0.0478
160 | ATCGTTGC | -0.0172
161 | ATTGAACG | 0.155
162 | CTGGTAAA | 0.141
163 | GCTATCCC | -0.216
164 | ACGCTTTG | -0.0106
165 | AGCGTAAG | -0.0488
166 | AAGCAAAT | 0.0784
167 | ATCACGAG | -0.184
168 | AGGACCAG | -0.126
169 | CAGCCTAG | -0.092
170 | CGCGGACG | 0.0627
171 | AGCCGCCT | -0.187
172 | GGCACAGA | -0.096
